Measurements from paper PMC12846068, “Insights into Transport Function of the Murine Organic Anion-Transporting Polypeptide OATP1B2 by Comparison with Its Rat and Human Orthologues” (Toxics, 2025).

How the values were obtained:
[1] = target: T1, hOATP1B1 (Homo sapiens, UniProt Q9Y6L6); parameters: expressed in transfected cells; host or cells: HEK-293, stably transfected; details: previous study; cited from earlier work
T1 sequence (Q9Y6L6 1-691): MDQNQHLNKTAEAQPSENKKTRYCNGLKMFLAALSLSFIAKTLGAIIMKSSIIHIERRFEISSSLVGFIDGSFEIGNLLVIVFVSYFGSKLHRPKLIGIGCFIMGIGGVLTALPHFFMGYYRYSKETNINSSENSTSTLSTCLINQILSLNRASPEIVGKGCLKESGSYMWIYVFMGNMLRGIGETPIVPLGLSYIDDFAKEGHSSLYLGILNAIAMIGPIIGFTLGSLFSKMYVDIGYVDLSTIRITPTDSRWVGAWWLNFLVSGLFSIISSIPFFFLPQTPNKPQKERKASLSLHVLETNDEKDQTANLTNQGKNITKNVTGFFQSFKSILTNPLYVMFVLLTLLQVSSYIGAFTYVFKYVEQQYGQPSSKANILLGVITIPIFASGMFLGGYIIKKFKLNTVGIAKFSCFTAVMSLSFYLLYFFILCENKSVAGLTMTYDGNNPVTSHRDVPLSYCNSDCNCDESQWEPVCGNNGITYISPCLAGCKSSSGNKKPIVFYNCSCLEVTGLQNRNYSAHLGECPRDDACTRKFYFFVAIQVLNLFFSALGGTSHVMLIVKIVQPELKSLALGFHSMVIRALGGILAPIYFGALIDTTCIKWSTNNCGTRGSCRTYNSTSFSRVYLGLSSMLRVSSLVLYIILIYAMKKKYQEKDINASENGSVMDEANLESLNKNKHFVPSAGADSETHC

[2] = target: T2, hOATP1B3 (Homo sapiens, UniProt Q9NPD5); parameters: expressed in transfected cells; host or cells: HEK-293, stably transfected; details: CHO cells; ref Gui et al. (2008) [16]; read-out: Km, OATP1B3-mediated E1S; cited from earlier work
T2 sequence (Q9NPD5 1-702): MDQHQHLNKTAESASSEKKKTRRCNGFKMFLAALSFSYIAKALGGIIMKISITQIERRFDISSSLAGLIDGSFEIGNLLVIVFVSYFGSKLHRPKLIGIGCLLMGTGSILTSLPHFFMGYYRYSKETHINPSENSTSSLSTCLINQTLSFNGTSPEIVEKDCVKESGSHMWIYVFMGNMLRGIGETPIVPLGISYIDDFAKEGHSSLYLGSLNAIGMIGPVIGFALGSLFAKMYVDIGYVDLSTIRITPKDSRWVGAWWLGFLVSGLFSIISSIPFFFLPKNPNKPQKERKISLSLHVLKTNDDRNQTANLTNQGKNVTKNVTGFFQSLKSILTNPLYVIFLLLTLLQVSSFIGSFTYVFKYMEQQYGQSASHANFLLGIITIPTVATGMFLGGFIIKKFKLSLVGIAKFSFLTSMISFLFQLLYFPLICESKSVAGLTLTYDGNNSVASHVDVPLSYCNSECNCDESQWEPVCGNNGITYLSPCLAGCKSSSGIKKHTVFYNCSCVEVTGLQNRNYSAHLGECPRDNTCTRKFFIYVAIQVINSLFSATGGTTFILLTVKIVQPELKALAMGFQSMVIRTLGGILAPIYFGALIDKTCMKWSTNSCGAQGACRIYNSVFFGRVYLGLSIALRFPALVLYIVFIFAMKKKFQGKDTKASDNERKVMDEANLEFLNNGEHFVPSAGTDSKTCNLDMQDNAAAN

[3] = target: T1, hOATP1B1; details: hOATP1B1, 0.01 µM substrate
[4] = target: T3, mOATP1B2 (Mus musculus, UniProt Q9JJL3); assay: mOATP1B2-mediated uptake of [3H]-E1S and [3H]-TCA in overexpressing HEK293 cells; assay type: cell-based
T3 construct: The full-length mOATP1B2 and rOATP1B2 consist of 689 and 678 amino acids
T3 sequence (Q9JJL3 1-689): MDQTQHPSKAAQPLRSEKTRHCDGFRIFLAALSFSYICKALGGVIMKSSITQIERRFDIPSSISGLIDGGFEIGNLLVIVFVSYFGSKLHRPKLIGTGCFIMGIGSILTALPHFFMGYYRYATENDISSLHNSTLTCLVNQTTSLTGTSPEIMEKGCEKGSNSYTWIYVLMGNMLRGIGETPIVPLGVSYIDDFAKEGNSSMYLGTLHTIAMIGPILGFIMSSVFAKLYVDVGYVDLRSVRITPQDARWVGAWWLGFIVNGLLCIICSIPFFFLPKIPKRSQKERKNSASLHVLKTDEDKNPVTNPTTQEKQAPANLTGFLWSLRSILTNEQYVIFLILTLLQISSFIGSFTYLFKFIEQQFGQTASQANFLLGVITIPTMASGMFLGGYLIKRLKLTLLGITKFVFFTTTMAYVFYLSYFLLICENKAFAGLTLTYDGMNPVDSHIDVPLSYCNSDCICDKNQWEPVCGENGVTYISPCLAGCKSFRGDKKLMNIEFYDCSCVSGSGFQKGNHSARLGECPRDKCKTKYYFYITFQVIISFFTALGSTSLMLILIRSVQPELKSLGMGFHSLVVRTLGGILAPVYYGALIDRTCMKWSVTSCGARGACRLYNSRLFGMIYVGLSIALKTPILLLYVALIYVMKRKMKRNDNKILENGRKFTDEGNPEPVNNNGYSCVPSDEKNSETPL

[5] = target: T2, hOATP1B3; assay: hOATP1B3-mediated uptake of [3H]-E1S and [3H]-TCA in transfected HEK293 cells
[6] = target: T4, rOATP1B2 (Rattus norvegicus, UniProt Q9QZX8); assay: rOATP1B2-mediated uptake of [3H]-E1S and [3H]-TCA in overexpressing HEK293 cells; assay type: cell-based
T4 construct: The full-length mOATP1B2 and rOATP1B2 consist of 689 and 678 amino acids
T4 sequence (Q9QZX8 1-687): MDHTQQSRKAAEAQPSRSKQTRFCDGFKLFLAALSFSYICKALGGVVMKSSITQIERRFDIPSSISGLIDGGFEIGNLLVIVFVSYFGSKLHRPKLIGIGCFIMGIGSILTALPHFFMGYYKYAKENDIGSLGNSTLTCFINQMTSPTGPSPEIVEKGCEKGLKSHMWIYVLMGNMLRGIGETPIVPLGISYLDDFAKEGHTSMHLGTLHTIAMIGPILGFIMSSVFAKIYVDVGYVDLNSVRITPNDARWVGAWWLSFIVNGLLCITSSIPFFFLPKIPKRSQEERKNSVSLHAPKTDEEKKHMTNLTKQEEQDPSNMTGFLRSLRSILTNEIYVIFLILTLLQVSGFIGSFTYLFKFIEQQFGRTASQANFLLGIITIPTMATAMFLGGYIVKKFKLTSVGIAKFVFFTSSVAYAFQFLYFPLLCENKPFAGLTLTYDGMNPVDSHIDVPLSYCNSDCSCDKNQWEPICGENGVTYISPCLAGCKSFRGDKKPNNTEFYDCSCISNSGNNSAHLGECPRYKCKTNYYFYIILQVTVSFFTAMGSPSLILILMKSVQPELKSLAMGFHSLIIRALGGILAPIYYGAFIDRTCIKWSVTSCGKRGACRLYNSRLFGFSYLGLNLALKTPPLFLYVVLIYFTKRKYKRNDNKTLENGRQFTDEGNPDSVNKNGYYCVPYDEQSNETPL

For C[C@]12CC[C@@H]3c4ccc(OS(=O)(=O)O)cc4CC[C@H]3[C@@H]1CCC2=O [E1S, estrone-3-sulfate], the Km [1] is listed as 0.25 ± 0.04 µM, the Km [2] is listed as 58 ± 20 µM and the “uptake compared to vector-transfected control cells” value [3] is listed as 46 fold. For the same molecule, the “uptake ratio transporter-HEK cells versus vector-HEK cells” value ([4]; mOATP1B2, 1 µM substrate, initial time 1 min) was “more than 50 fold”, the Vmax ([4]; mOATP1B2-HEK293, net uptake, 1 min, 37 °C) was 8881 ± 390 pmol/mg protein/min and the Km ([4]; mOATP1B2-HEK293, net uptake, 1 min, 37 °C, increasing unlabeled substrate with 10 nM 3H-substrate) was 242 ± 23 µM. For the same molecule, the “uptake compared to vector-transfected control cells” value ([5]; hOATP1B3, 0.01 µM substrate) was “no significant uptake”, the “uptake compared to vector-transfected control cells” value ([5]; hOATP1B3, 1 µM substrate, E1S 5 min, TCA 10 min) was “no significant uptake” and the “uptake ratio transporter-HEK cells versus vector-HEK cells” value ([6]; rOATP1B2, 1 µM substrate, initial time 1 min) was “around 10 fold”. It also gave a Vmax ([6]; rOATP1B2-HEK293, net uptake, 1 min, 37 °C) of 859 ± 36 pmol/mg protein/min and a Km ([6]; rOATP1B2-HEK293, net uptake, 1 min, 37 °C, increasing unlabeled substrate with 10 nM 3H-substrate) of 90 ± 11 µM.
